Variants at the floor of the assay are shown more often than the library holds them.
B1: TPR 5TU (parent)
chain: GGAUCUUCUCGAUCUAACAAAAAAGACAAAUCUGCCACAAAGCUUGAGAGCAUCUUCGGAUGCAGAGGCGGCAGCCUUCGGUGGCGCGAUAGCGCCAACGUUCUCAACUAUGACACGCAAAACGCGUGCUCCGUUGAAUGGAGUUUAUCAUG

Variants of: B1
Experiment: polymerase ribozyme fitness, log enrichment relative to wild type (log ratio); higher = more active; in vitro selection for triplet polymerase activity
Procedure, shortened: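 Mutant libraries of each subunit of a heterodimeric triplet polymerase ribozyme were built by PCR and transcribed. Each library went through one round of in vitro selection in triplicate: annealing with biotinylated primer, partner subunit and triplets, frozen incubation at −7 °C, gel excision of extended constructs, streptavidin-bead capture and RT-PCR. Input and output libraries were Illumina-sequenced; only genotypes with ≥10 input reads and ≥1 read per output were kept. Fitness is log2(genotype enrichment/wild-type enrichment), using inverse-variance-weighted replicate averages.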

Polymerase ribozyme fitness (log ratio), ≤ -4.2:
GGAUCUUCUCGAUCUAACAAAAAAGACAAAUCUGCCACAAAGCUUGAGAGCAUCUUCGGAUGCACAGGCGGCAGUCUUCGGUGGCGCGAUAGCGCCAACGUUCUCAACUAUGACACGCAAAACGCUUGCUCCGUUGAAUGGAGUUUAUCAUG [G65C C75U G126U]
GGAUCUUCUCGAUCUAACAAAAAAGACAAAUCUGCCACAAAGCUUGAGAGCAUCUUCGGAUGCACAGGCGGCAGCGUCCCGUGGCGCGAUAGCGACAACGUUCUCAACUAUGACACGCAAAACGCGUGCUACGUUGAAUGGAGUUUAUCAUG [G65C C76G U78C G80C C95A C131A]
GGAUCUUCUCGAUCUAACAAAAAAGACAAAUCUGCCACAAAGCUUGAGAGCAUCUUCGGAUGCACAGGCGGCAGCCUUCGGUGGCGCGAUAGUGCCAACGUUCUCAACUAUGACACGCAAAACGCGUGCUCCGUUGAAUGGAGUUUAGCAUG [G65C C93U U148G]
GGAUCUUCUCGAUCUAACAAAAAAGACAAAUCUGCCACAAAGCUUGAGAGCAUCUUCGGAUGCACAGGCGGCAGCCUUCGGUGGCGCGAUAGCGCCAAGGUUCUCAACUAUGACACGCAAAACGCGUGCUCCGUUGAAUGGAGUUUAUCAUG [G65C C99G]
GGAUCUUCUCGAUCUAACAAAAAAGACAAAUCUGCCACAAAGCUUGAGAGCAUCUUCGGAUGCACAGGCAGCAGCCUUCGGUGGCACGAGAGCGACAACGUUCUCAACUAUGACACGCAAAACGCGUGCUCCGUUGAAUGGAUUUUAUCAUG [G65C G70A G86A U90G C95A G143U]
GGAUCUUCUCGAUCUAACAAAAAAGACAAAUCUGCCACAAAGCUUGAGAGCAUCUUCGGAUGCACAGGCGGCAGCCUUCAGUGGCGCGAUAGCGCCAACGUUGUCAACUAUGACACGCAAAACGCGUGCUCCGUUGAAUGGAGUUUAUCAUG [G65C G80A C103G]
GGAUCUUCUCGAUCUAACAAAAAAGACAAAUCUGCCACAAAGCUUGAGAGCAUCUUCGGAUGCACAGGCGGCAGCCUUCGGUGACGCGAGAGCGCCAACGGUCUCAACUAUGACACGCAAAACUCGUGCUCCGUUUAAUCGAGUUUAUCAUG [G65C G84A U90G U101G G124U G136U G140C]
GGAUCUUCUCGAUCUAACAAAAAAGACAAAUCUGCCACAAAGCUUGAGAGCAUCUUCGGAUGCACAGGCGGCAGCCUUCGGUGGCGCUAUAGCGCCAACGUUCUCUACUAUGACACGCAAAACGCGUGCUCCGUUGAAUCGAGUUUAUCAUG [G65C G88U A106U G140C]
GGAUCUUCUCGAUCUAACAAAAAAGACAAAUCUGCCACAAAGCUUGAGAGCAUCUUCGGAUGCACAGGCGGCAGCCAUCGGUGGCGAGAUAGCGCCAACGUUCUCAACUAUGACUCGCAAAACGCGUGCUCCGUUGAAUGGAGUUUAUCAUG [G65C U77A C87A A115U]
GGAUCUUCUCGAUCUAACAAAAAAGACAAAUCUGCCACAAAGCUUGAGAGCAUCUUCGGAUGCACAGGCGGCAGCCUUCGGUGGCGCGACAGCGCCAACGUUCUCAACUAUGACACGCAAAACGCGUGCUCCGUUGAAUGGAGUUUAUCAUG [G65C U90C]
GGAUCUUCUCGAUCUAACAAAAAAGACAAAUCUGCCACAAAGCUUGAGAGCAUCUUCGGAUGCAUAGGCGGCAGCCUUCGGUGGCGCGAUAGCGCCGAAGUUCUCAACUAUGACACGCAAAACGCGUGCUCCGUUGAAUGGAGUUUAUCAUG [G65U A97G C99A]
GGAUCUUCUCGAUCUAACAAAAAAGACAAAUCUGCCACAAAGCUUGAGAGCAUCUUCGGAUGCAUAGGCGGCAGCCUUCGGUGGCGCGAUAGAGCCAACGUUCUCAACUAUGACACCCAAAACGCGUGCUCCGUUGAAUGGAGUUUAUCAUG [G65U C93A G117C]
GGAUCUUCUCGAUCUAACAAAAAAGACAAAUCUGCCACAAAGCUUGAGAGCAUCUUCGGAUGCAUAGGCGGCAGCCUUCGGUGGCGCGAUAGCGCAAACGUUCUCAACUAUGACACACAAAACGCGUGCUCCGUUGAAUGGAGUUUAUCAUG [G65U C96A G117A]
GGAUCUUCUCGAUCUAACAAAAAAGACAAAUCUGCCACAAAGCUUGAGAGCAUCUUCGGAUGCAUAGGCGGCAGCCUUCGGUGUCGCGAUAGCGCCAACGUUUUCAACUAUGACACGCAAAGCGCGUGCUCCGUUGAAUGGAGUUUAUCAUG [G65U G84U C103U A122G]
GGAUCUUCUCGAUCUAACAAAAAAGACAAAUCUGCCACAAAGCUUGAGAGCAUCUUCGGAUGCAUAGGCGGCAGCCUUCGGCGGCGCGAUGGCGCAAAUGUUCUCAACUAUGACACGCAAAACGCGUGCUCCGUUGAAUGGAGUUUAUCAUG [G65U U82C A91G C96A C99U]
GGAUCUUCUCGAUCUAACAAAAAAGACAAAUCUGCCACAAAGCUUGAGAGCAUCUUCGGAUGCAGCGGCGGCGGCCUUCCGUGGCGCGAUAGCGCCAACGUUCUCAACUAUGAAACGCAAAACGCGUGCUCCGUUGAAUGAAGUUUAUCAUG [A66C A73G G80C C114A G141A]
GGAUCUUCUCGAUCUAACAAAAAAGACAAAUCUGCCACAAAGCUUGAGAGCAUCUUCGGAUGCAGCGGCGGCAGCCUUCGGUGGCGCGUUAGAGCCAACGUUCUCAACUAUGACACGCAAAACGGGUGCUCCGUUGAAUGGAAUUUAUCAUG [A66C A89U C93A C125G G143A]
GGAUCUUCUCGAUCUAACAAAAAAGACAAAUCUGCCACAAAGCUUGAGAGCAUCUUCGGAUGCAGCGGCGGCAGACUUCGGCGACGCGAUAGCGCCAACGUUCUCAACUAUGACACGCAAAACGCGUGCUCCGUUGAAUGGAGUUUAUCAUG [A66C C75A U82C G84A]
GGAUCUUCUCGAUCUAACAAAAAAGACAAAUCUGCCACAAAGCUUGAGAGCAUCUUCGGAUGCAGCGGCGGCAGCCUUAGGUGGGGCGAUAUCGCCAACGUACUCAACUAUGACACGCAAAACGCGUGCUCCGUUGGAUGGAGUUUAUCAUG [A66C C79A C85G G92U U102A A137G]
